In the supplement of paper PMC4967469:
A lower IC50 marks a more sensitive line; fits outside the tested doses are given as limits. AUC sums up the same curve from the lowest dose to the 256-fold higher top dose; it is 1 without any effect and falls as sensitivity rises. For part of these data: Where the top dose is marked as inferred, it was calculated from the reported fits. For part of these data: An entry number marks a drug with two screens in the source, which often give different values.

What was measured:
Experiment in all cases: Viability of human cancer cell lines after 72 h of drug (GDSC screen)
[1] = compound: CC1(C)CC(=O)c2c(C(F)(F)F)nn(-c3ccc(C(N)=O)c(N[C@H]4CC[C@H](O)CC4)c3)c2C1 [SNX-2112]; details: top dose 2.56 µM
Method: (§1)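 Human cancer cell lines in 384-well plates, medium with 10% serum, drug for 72 h over a 256-fold dose range (nine 2-fold or five 4-fold steps up to the top dose). Adherent lines were fixed and stained with the nucleic acid dye Syto60, suspension lines read with resazurin; signal relative to control wells, capped at 0 and 100%. One two-parameter sigmoid per drug and line, fitted in a mixed model over all curves with the slope shared within a line.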

[2] = compound: CC[C@]1(O)C[C@@H]2CN(CCc3c([nH]c4ccccc34)[C@@](C(=O)OC)(c3cc4c(cc3OC)N(C)[C@H]3[C@@](O)(C(=O)OC)[C@H](OC(C)=O)[C@]5(CC)C=CCN6CC[C@]43[C@@H]65)C2)C1 [Vinblastine]; details: top dose 0.1 µM; top dose inferred
Method: as §1

[3] = compound: CN(C)C/C=C/C(=O)Nc1cc2c(Nc3ccc(F)c(Cl)c3)ncnc2cc1O[C@H]1CCOC1 [Afatinib]
Method: as §1

[4] = compound: CN(c1ncccc1CNc1nc(Nc2ccc3c(c2)CC(=O)N3)ncc1C(F)(F)F)S(C)(=O)=O [PF-562271]; details: top dose 2.56 µM; top dose inferred
Method: as §1

[5] = compound: O=C(NC1CC1)c1cccc(-c2ccc3c(NC(=O)C4CC4)n[nH]c3c2)c1 [XMD13-2]; details: top dose 10.24 µM; top dose inferred
Method: as §1

[6] = top dose 0.5 µM, screen: GDSC drug entry 1032
[7] = top dose 10 µM, screen: GDSC drug entry 1377, top dose inferred

Cell Line	AUC [1]	IC50 [1]	AUC [2]	IC50 [2]	AUC [3, 6]	IC50 [3, 6]	AUC [3, 7]	IC50 [3, 7]	AUC [4]	IC50 [4]	AUC [5]	IC50 [5]
SF295 (glioma, adherent)	0.466	0.128 µM	0.762	0.0383 µM	0.98	> 0.5 µM	0.874	> 10 µM	0.905	> 2.56 µM	0.951	> 10.2 µM
BICR10 (head and neck, adherent)	0.739	0.869 µM	0.437	0.0041 µM	0.979	> 0.5 µM	0.969	> 10 µM	0.867	> 2.56 µM	0.982	> 10.2 µM
MRK-nu-1 (breast, suspension)	0.565	0.237 µM	0.918	> 0.1 µM	0.99	> 0.5 µM	0.989	> 10 µM	0.869	2.04 µM	0.931	> 10.2 µM
TYK-nu (ovary, adherent)	0.947	> 2.56 µM	0.547	0.00848 µM	0.985	> 0.5 µM	0.983	> 10 µM	0.945	> 2.56 µM	0.985	> 10.2 µM
SH-4 (melanoma, adherent)	0.551	0.237 µM	0.738	0.0446 µM	0.963	> 0.5 µM	0.871	> 10 µM	0.878	> 2.56 µM	0.949	> 10.2 µM
PA-TU-8988T (pancreas, adherent)	0.639	0.387 µM	0.651	0.0165 µM	0.981	> 0.5 µM	0.943	> 10 µM	0.922	> 2.56 µM	0.965	> 10.2 µM
FADU (head and neck, adherent)	0.811	1.3 µM	0.671	0.0183 µM	0.55	0.0427 µM	0.703	2.27 µM	0.967	> 2.56 µM	0.96	> 10.2 µM
NCI-H630 (large intestine, adherent)	0.785	1.18 µM	0.926	> 0.1 µM	0.909	> 0.5 µM	0.913	> 10 µM	0.948	> 2.56 µM	0.974	> 10.2 µM
LN-405 (glioma, adherent)	0.813	1.85 µM	0.774	0.0497 µM	0.984	> 0.5 µM	0.97	> 10 µM	0.984	> 2.56 µM	0.966	> 10.2 µM
COR-L88 (small cell lung carcinoma, adherent)	0.717	0.752 µM	0.764	0.043 µM	0.985	> 0.5 µM	0.979	> 10 µM	0.983	> 2.56 µM	0.855	> 10.2 µM
MS751 (cervix, adherent)	0.714	0.608 µM	0.453	0.00471 µM	0.967	> 0.5 µM	0.978	> 10 µM	0.959	> 2.56 µM	0.908	> 10.2 µM
MFE-280 (endometrium, adherent)	0.665	0.524 µM	0.918	> 0.1 µM	0.982	> 0.5 µM	0.971	> 10 µM	0.923	> 2.56 µM	0.911	> 10.2 µM
IPC-298 (melanoma, adherent)	0.467	0.13 µM	0.636	0.0147 µM	0.98	> 0.5 µM	0.986	> 10 µM	0.925	> 2.56 µM	0.954	> 10.2 µM
H2722 (mesothelioma, adherent)	0.931	> 2.56 µM	0.799	0.0589 µM	0.984	> 0.5 µM	0.923	> 10 µM	0.863	> 2.56 µM	0.971	> 10.2 µM
JHH-2 (liver, adherent)	0.428	0.1 µM	0.755	0.0362 µM	0.968	> 0.5 µM	0.972	> 10 µM	0.973	> 2.56 µM	0.935	> 10.2 µM
DJM-1 (skin, adherent)	0.436	0.107 µM	0.602	0.0119 µM	0.961	> 0.5 µM	0.932	> 10 µM	0.964	> 2.56 µM	0.962	> 10.2 µM
MLMA (hairy cell leukaemia, semi-adherent)	0.318	0.0494 µM	0.485	0.00568 µM	0.983	> 0.5 µM	0.961	> 10 µM	0.937	> 2.56 µM	0.792	4.67 µM
CAL-12T (non-small cell lung carcinoma, adherent)	0.568	0.25 µM	0.769	0.0424 µM	0.91	> 0.5 µM	0.849	8.93 µM	0.928	> 2.56 µM	0.972	> 10.2 µM
RPMI-8402 (T-cell lymphoblastic leukaemia, suspension)	0.28	0.043 µM	0.522	0.0071 µM	0.99	> 0.5 µM	0.95	> 10 µM	0.909	> 2.56 µM	0.736	2.63 µM
SW48 (large intestine, adherent)	0.296	0.0428 µM	0.495	0.00606 µM	0.815	0.272 µM	0.839	6.81 µM	0.809	1.32 µM	0.932	> 10.2 µM
Hep 3B2_1-7 (liver, adherent)	0.486	0.146 µM	0.596	0.0115 µM	0.985	> 0.5 µM	0.961	> 10 µM	0.878	> 2.56 µM	0.977	> 10.2 µM
CGTH-W-1 (thyroid, adherent)	0.828	1.57 µM	0.354	0.00248 µM	0.984	> 0.5 µM	0.982	> 10 µM	0.842	1.78 µM	0.944	> 10.2 µM

Cell Line	AUC [1]	IC50 [1]	AUC [2]	IC50 [2]	AUC [3, 6]	IC50 [3, 6]	AUC [3, 7]	IC50 [3, 7]	AUC [4]	IC50 [4]	AUC [5]	IC50 [5]
KYSE-140 (oesophagus, adherent)	0.41	0.0875 µM	0.782	0.0478 µM	0.608	0.0644 µM	–	–	0.919	> 2.56 µM	0.887	> 10.2 µM
LoVo (large intestine, adherent)	0.76	0.909 µM	0.503	0.00637 µM	0.927	> 0.5 µM	0.896	> 10 µM	0.918	> 2.56 µM	0.945	> 10.2 µM
NCI-H727 (lung carcinoid, adherent)	0.673	0.673 µM	0.814	> 0.1 µM	0.928	> 0.5 µM	0.908	> 10 µM	0.923	> 2.56 µM	0.943	> 10.2 µM
LB373-MEL-D (melanoma, adherent)	0.968	> 2.56 µM	0.884	> 0.1 µM	0.99	> 0.5 µM	0.987	> 10 µM	0.884	> 2.56 µM	0.99	> 10.2 µM
SU8686 (pancreas, adherent)	0.847	2.24 µM	0.67	0.0198 µM	0.94	> 0.5 µM	0.982	> 10 µM	0.942	> 2.56 µM	0.959	> 10.2 µM
NB69 (neuroblastoma, adherent)	0.639	0.37 µM	0.508	0.00655 µM	0.873	0.389 µM	–	–	0.861	1.78 µM	0.909	> 10.2 µM
LNZTA3WT4 (glioma, adherent)	0.772	0.971 µM	0.685	0.0203 µM	0.989	> 0.5 µM	0.987	> 10 µM	0.894	> 2.56 µM	0.958	> 10.2 µM
MHH-NB-11 (neuroblastoma, adherent)	0.532	0.198 µM	0.762	0.0392 µM	0.957	> 0.5 µM	–	–	0.949	> 2.56 µM	0.844	8.42 µM
CAL-120 (breast, adherent)	0.566	0.256 µM	0.558	0.00942 µM	0.959	> 0.5 µM	0.92	> 10 µM	0.813	1.91 µM	0.94	> 10.2 µM
BE-13 (lymphoblastic leukaemia, suspension)	0.359	0.067 µM	0.299	0.00177 µM	0.966	> 0.5 µM	0.931	> 10 µM	0.916	> 2.56 µM	0.736	2.87 µM
WM-115 (melanoma, adherent)	0.436	0.103 µM	0.541	0.00831 µM	0.963	> 0.5 µM	0.979	> 10 µM	0.968	> 2.56 µM	0.861	> 10.2 µM
NCI-H2342 (lung adenocarcinoma, adherent)	0.981	> 2.56 µM	0.93	> 0.1 µM	0.981	> 0.5 µM	0.898	> 10 µM	0.967	> 2.56 µM	0.985	> 10.2 µM
CHSA8926 (chondrosarcoma, adherent)	0.753	1.19 µM	0.596	0.0128 µM	0.966	> 0.5 µM	0.908	> 10 µM	0.748	1.14 µM	0.97	> 10.2 µM
451Lu (melanoma, adherent)	0.844	1.71 µM	0.344	0.00236 µM	0.989	> 0.5 µM	0.958	> 10 µM	0.905	> 2.56 µM	0.966	> 10.2 µM
KM-H2 (Hodgkin lymphoma, suspension)	0.587	0.266 µM	0.649	0.0151 µM	0.993	> 0.5 µM	0.992	> 10 µM	0.982	> 2.56 µM	0.892	8.81 µM
HuP-T3 (pancreas, adherent)	0.753	1.03 µM	0.554	0.00905 µM	0.956	> 0.5 µM	0.966	> 10 µM	0.931	> 2.56 µM	0.938	> 10.2 µM
PANC-08-13 (pancreas, adherent)	0.673	0.56 µM	0.699	0.0269 µM	0.885	> 0.5 µM	0.917	> 10 µM	0.889	> 2.56 µM	0.959	> 10.2 µM
ASH-3 (thyroid, adherent)	0.875	2.52 µM	0.704	0.0235 µM	0.955	> 0.5 µM	0.987	> 10 µM	0.856	2.07 µM	0.988	> 10.2 µM
HOS (osteosarcoma, adherent)	0.992	> 2.56 µM	0.511	0.00668 µM	0.99	> 0.5 µM	0.942	> 10 µM	0.926	> 2.56 µM	0.992	> 10.2 µM
NCI-H82 (small cell lung carcinoma, suspension)	0.852	1.81 µM	0.423	0.00391 µM	0.982	> 0.5 µM	0.987	> 10 µM	0.938	> 2.56 µM	0.944	> 10.2 µM
KYSE-520 (oesophagus, adherent)	0.729	0.916 µM	0.7	0.028 µM	0.92	> 0.5 µM	0.975	> 10 µM	0.929	> 2.56 µM	0.963	> 10.2 µM
SAT (head and neck, adherent)	0.716	0.93 µM	0.562	0.0101 µM	0.524	0.0378 µM	0.384	0.252 µM	0.919	> 2.56 µM	0.975	> 10.2 µM
